In all, about 48,000 compounds went through this assay and about 450 (0.94%) were called active. Roughly 19% stayed inconclusive and do not appear here. Calls come from the whole dose curve; as a rule, active = well fitted inhibition curve with a large enough effect; inconclusive = small, poorly fitted or top-dose-only effect; inactive = no such curve, though single readings can be large or run the other way. This is one part of the list.
Test: Primary qHTS for Identification of Small Molecule Inhibitors of Huntingtin Promoter Activity; note: nearly all actives have a fitted effect of over 50% in size
Settings: HEK293 HTT promoter firefly luciferase reporter (activity 0% = vehicle and -100% = no light), 24 h; series mostly up to 57.5 µM; activity change, negative = inhibition: at the top concentration
How it was run: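 HEK293 cells carrying firefly luciferase reporters were seeded at 2,500 per well in Opti-MEM and cultured for 24 h. They were then treated with compounds at up to 57.5 uM final for 24 h at 37 degrees C before Dual-Glo luminescence readout.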

Compound | activity change, negative = inhibition
O=C(NC1CCCC1)c1ccc2c(=O)n(Cc3ccccc3)c(SCc3ccc([N+](=O)[O-])cc3)nc2c1 | inactive: 3.23%
CCc1ccc(-n2nc(CO)c(C(=O)NC(C)c3ccc(Cl)cc3)n2)cc1 (centres undefined) | inactive: -3.31%
COc1cccc(CNC(=O)CN2C(=O)CCc3cc(S(=O)(=O)N4CCOCC4)ccc32)c1 | inactive: -24.7%
COc1ccc(OC)c2sc(N(Cc3cccnc3)C(C)=O)nc12 | inactive: -5.51%
Cc1ccc(Sc2ccc(N3CCCC(C(=O)Nc4ccc(Br)cc4)C3)nn2)cc1 (centres undefined) | inactive: -30.6%
Cc1c(C)n(Cc2ccccc2)c2ccc(C(=O)N3CCN(c4ccccc4F)CC3)cc12 | inactive: -0.493%
Cc1nc2ccn(Cc3cccnc3)c(=O)c2cc1C(=O)N1CCN(c2ccccc2F)CC1 | inactive: -1.61%
O=C(NCCc1ccc(Cl)cc1)c1cc(-c2ccccc2)n[nH]1 | inactive: -14%
COc1ccc(SCc2cc(=O)c3ccc(C)c(C)c3[nH]2)cc1 | inactive: 3.4%
CCOc1ccc(-c2nnc(SCC(=O)NC3CCCCC3)nc2-c2ccc(OCC)cc2)cc1 | inactive: -0.464%
Cc1ccc(C)c(N2CCN(c3nc4ccccc4c(=O)n3-c3ccc(Cl)cc3)CC2)c1 | inactive: -12.3%
COc1ccc2c(c1)Cc1sc(NC(=O)c3ccccc3C)nc1-2 | inactive: 8.31%
COc1cc2nc(N(C)CCCNC(=O)C3CCCO3)nc(N)c2cc1OC (centres undefined) | inactive
COc1ccc(C2=C(C)C(N3CCC(C(=O)NCc4ccc(C)o4)CC3)=NS2(=O)=O)cc1 | inactive: -23.7%
CCN(CC)c1ccc(NC(=O)Cn2ncc3c(C)n(Cc4ccccc4F)c(C)c3c2=O)c(C)c1 | inactive: 7.17%
Cc1ccc(NC(=O)Cc2ccc(NC(=O)N3CCCCc4ccccc43)cc2)cc1Cl | inactive: -14.9%
CC(=O)c1ccc(NC(=O)Nc2ccc3snnc3c2)cc1 | inactive: 23.1%
Cc1cccc(C)c1-n1ncc(C(=O)NCCCN2CCCCC2)c1C1CCN(C(=O)OC(C)(C)C)CC1 | inactive: -13.8%
CCCCOc1ccc(C(=O)NCC(c2ccc(Cl)cc2)N2CCOCC2)cc1 (centres undefined) | inactive: -5.83%
COC(=O)c1nnn(-c2cccc(C)c2)c1N | inactive: 14.5%
COc1ccc(-n2c(SCc3nc(-c4ccc(C)cc4)no3)nnc2-c2ccccc2)cc1 | inactive: -8.27%
CC(C)Oc1ccc(CNC(=O)CN2C(=O)CCn3nc(-c4cn(C)c5ccccc45)cc32)cc1 | inactive: 5.43%
CC1CN(C(=O)Nc2ccc(C(=O)NCc3ccccc3F)cc2)c2ccccc2S1 (centres undefined) | inactive: -34.6%
COC(=O)c1ccc(NC(=O)CSc2n[nH]c(-c3ccccc3)n2)cc1 | inactive: 0.484%
Fc1ccccc1N1CCN(Cc2nnc(-c3ccc4c(c3)OCO4)o2)CC1 | inactive: -8.94%

Compound | activity change, negative = inhibition
Cc1ccccc1OCC(=O)Nc1ccc2oc(-c3ccc(F)cc3)nc2c1 | inactive: 9.4%
C[N+](C)(C)CCCCCCCCCC[N+](C)(C)C | inactive: 1.69%
COc1ccc(C)cc1NC(=O)COc1cc(=O)n(C)c2ccccc12 | inactive: -6.87%
CCc1ccc(NC(=O)CN(C)S(=O)(=O)c2ccc3c(c2)c(=O)n(C)c(=O)n3C)cc1 | inactive: -12%
CCOC(=O)c1cc2c(=O)n3ccccc3nc2n(Cc2ccco2)c1=NC(=O)c1ccc(Br)cc1 | inactive: -18.3%
Cc1ccc(NC(=O)c2nnn(Cc3ccccc3)c2N)cc1C | inactive: 39.8%
CCN1CCN(CC(=O)Nc2ccc(-c3cccc4c(=O)cc(N5CCOCC5)oc34)c3sc4ccccc4c23)CC1 | inactive: -21.2%
Cc1ccccc1-c1nc(SCC(=O)NCc2ccc(F)cc2)c2c(=O)n(C)c(=O)n(C)c2n1 | inactive: 9.66%
COc1ccc(-c2nc(-c3cc4cc(Br)ccc4oc3=O)cs2)cc1 | inactive: -1.84%
COc1ccccc1N1CCN(c2nc3ccccc3n3cnnc23)CC1 | inactive: 5.67%
O=C(CCn1nc(-c2ccccc2)c2ccccc2c1=O)Nc1ccccc1 | inactive: -24.9%
Cc1cccc(C)c1NC(=O)Nc1csc2c1CCCC2 | inactive: -17.5%
Cc1ccc2nc(N(CCCN(C)C)C(=O)c3ccco3)sc2c1 | inactive: 18.8%
Cc1ccc(-n2nc(CO)c(C(=O)NCc3ccccn3)n2)cc1 | inactive: -7.66%
CC(=O)Nc1ccc(NC(=O)c2cc(=O)c3ccccc3o2)cc1 | inactive: 1.63%
COc1ccc(OCc2ccc(-c3nc(C#N)c(N4CCN(c5ccccc5)CC4)o3)o2)cc1 | inactive: -7.56%
CCOC(=O)c1cc(-c2ccccc2)n(CCC(=O)NCc2ccccc2Cl)c1C | inactive: -24%
COC(=O)c1sc2cccc(F)c2c1S(=O)(=O)N1CCN(c2cccc(OC)c2)CC1 | inactive: -32.6%
COc1ccc(Nc2nc3ccccc3nc2NS(=O)(=O)c2ccc(C)cc2)c(OC)c1 | inactive: -0.705%
O=C(COc1ccccc1F)OCc1cc(=O)n2nc(C3CCCCC3)sc2n1 | inactive: -5.04%
COc1cccc2cc(S(=O)(=O)c3ccc(F)c(C)c3)c(=O)oc12 | inactive: -11.5%
O=C1Nc2ccccc2Oc2cc(Oc3cccc(Cl)c3)ccc21 | inactive: -12%
Cc1nc2nc(SCC(=O)N(C)Cc3ccccc3)nn2c(C)c1Cc1ccccc1Cl | inactive: -17.7%
Fc1ccc(N2CCN(c3nc4ccccc4c4nc(-c5cccnc5)nn34)CC2)cc1 | inactive: 2.77%
